Source: the supplement of paper PMC3334620
Whole data set: some 33,000 sequences, median “E-score (-0.5 to 0.5)” near -0.036, cut for the highest 2% near 0.37. The list shows a part of the results.

These sequences were tested against T1, Yer064c (UniProt P40041) (assay: PBM E-score (8-mer binding enrichment) (E-score (-0.5 to 0.5)); higher = stronger / more preferred TF binding; most listed sequences are background and not binding sites). Conditions: protein concentration: 200 nM; construct: GST-full length.
T1 sequence: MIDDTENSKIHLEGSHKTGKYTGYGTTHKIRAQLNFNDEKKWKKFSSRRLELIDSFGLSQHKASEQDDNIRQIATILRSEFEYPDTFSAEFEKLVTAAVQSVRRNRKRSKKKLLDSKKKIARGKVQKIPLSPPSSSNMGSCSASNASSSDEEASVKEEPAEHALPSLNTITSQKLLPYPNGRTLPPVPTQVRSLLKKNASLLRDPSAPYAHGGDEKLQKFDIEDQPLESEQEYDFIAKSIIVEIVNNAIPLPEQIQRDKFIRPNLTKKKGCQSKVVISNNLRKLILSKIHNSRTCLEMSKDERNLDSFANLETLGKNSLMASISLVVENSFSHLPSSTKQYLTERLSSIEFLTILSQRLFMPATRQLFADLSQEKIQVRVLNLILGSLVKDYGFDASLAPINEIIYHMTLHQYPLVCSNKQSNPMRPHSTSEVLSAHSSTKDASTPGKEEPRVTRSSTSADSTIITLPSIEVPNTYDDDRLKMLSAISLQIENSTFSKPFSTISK
Description: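 Universal 'all 10-mer' protein binding microarrays (Agilent AMADID 015681) probed with GST-tagged S. cerevisiae TFs (full-length or DBD) made by in vitro transcription/translation (PURExpress), about 100-200 nM. Bound TF was detected with fluorescent anti-GST. Each ungapped 8-mer (which stands for itself and its reverse complement) is scored by the PBM enrichment score (E-score), a modified Wilcoxon-Mann-Whitney statistic from -0.5 to +0.5, computed with the Universal PBM Analysis Suite. Scale: above 0.35 generally sequence-specific binding.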

Row | Sequence | PBM E-score
1 | AAACTAAT | 0.243
2 | ATTTGGGA | 0.0486
3 | ACGTGCCT | -0.11
4 | ATCCCATC | -0.167
5 | CTTGGGTA | 0.0795
6 | ATCGGCGG | -0.121
7 | GACTAGAA | 0.293
8 | ACATCAGC | -0.0863
9 | CGGACCCC | -0.22
10 | CTTCGAAC | 0.0403
11 | TATAGGAA | 0.084
12 | GACTCACC | 0.478
13 | GCCACTCA | 0.116
14 | CAGTTGTC | 0.00626
15 | GTATCAGA | 0.0243
16 | GGACTGCA | 0.234
17 | AGTACCCC | -0.0756
18 | AGGATGGA | -0.0937
19 | ATCGACAA | -0.00382
20 | ATTGCAAT | 0.093
21 | AGCATGTC | -0.107
22 | ACGTTCAA | -0.11

Row | Sequence | PBM E-score
23 | GGATAACA | -0.0227
24 | ATATTAGG | 0.0316
25 | GATTCGGC | -0.0687
26 | ATCAAAGA | 0.193
27 | CCCTAGAG | -0.141
28 | GCCTATCC | -0.207
29 | GTAGCTCA | 0.067
30 | TAACGACA | -0.0322
31 | AAATACAT | -0.115
32 | ACAACTGC | -0.0478
33 | AGGGACCT | -0.293
34 | ATGATCTG | 0.148
35 | CGCTGTGC | -0.183
36 | CGACAAGC | -0.374
37 | CAACATCC | -0.266
38 | CCGGGAGC | -0.0914
39 | AGGCTGAG | -0.0227
40 | CCAAAGTA | 0.0323
41 | GAAGTTAA | -0.0823
42 | ACATCAAT | 0.111
43 | CAAACCAC | -0.123
44 | CCACCAAG | -0.137

Row | Sequence | PBM E-score
45 | AAACCCAG | -0.16
46 | ACATCAAC | 0.0386
47 | AATAACAC | -0.207
48 | GACCAAGC | -0.107
49 | ATCAATGC | -0.193
50 | AACATCCA | -0.155
51 | GGACAAAC | 0.0677
52 | GAAAAGGA | -0.166
53 | ATAGCCAG | -0.0249
54 | CCTGATCG | -0.0675
55 | AAATTGAT | 0.061
56 | ATTTGTGA | 0.163
57 | GAGCTAAA | -0.135
58 | TCCTGCCA | -0.174
59 | ACCTCCAA | 0.0762
60 | ATGGAAAA | -0.135
61 | ACGGGTCA | -0.12
62 | AAAGCTTT | 0.123
63 | AGTACGGA | 0.0676
64 | ACTCAGAC | 0.284
65 | ATAGTCTC | 0.346
66 | AAAACAGT | 0.137

Row | Sequence | PBM E-score
67 | ACAGCCCG | -0.195
68 | ACGCCTTG | -0.152
69 | AGTCTGAA | 0.231
70 | CTGATGGA | -0.00528
71 | AGAGAGAA | -0.00421
72 | AAAAGGCC | 0.0115
73 | CCGGCTGC | -0.221
74 | CAATAAAA | 0.211
75 | AATCTCTG | 0.0789
76 | AGAGGAAA | -0.0405
77 | CTGTAGAA | -0.164
78 | GAGTCAGA | 0.472
79 | AGTGTTAA | 0.0615
80 | CCAATTAA | 0.0698
81 | AAAAACGG | -0.229
82 | AACTCCGA | -0.0453
83 | ACTAACAG | 0.258
84 | ACACAGAG | 0.0141
85 | CCGTTATA | -0.127
86 | ATGCATTA | 0.0181
